{
  "source": "the supplement of paper PMC8728848",
  "binders": {"B1": {"name": "Regenerating Gene I (Homo sapiens), P05451 (protein)", "chain": "MAQTSSYFMLISCLMFLSQSQGQEAQTELPQARISCPEGTNAYRSYCYYFNEDRETWVDADLYCQNMNSGNLVSVLTQAEGAFVASLIKESGTDDFNVWIGLHDPKKNRRWHWSSGSLVSYKSWGIGAPSSVNPGYCVSLTSSTGFQKWKDVPCEDKFSFVCKFKN"}},
  "assay_in_all_cases": "glycan array binding signal (z-score within array); higher = stronger binding",
  "conditions_in_all_cases": "glycan notation: IUPAC condensed, linker removed",
  "key": {"[1]": {"biological_target": "Neu5Ac(a2-3)Gal(b1-4)[Fuc(a1-3)]GlcNAc", "summary_of_the_method": "(§1)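 Glycan array data came from 3228 arrays in the Consortium for Functional Glycomics database, and only arrays with an available protein sequence were kept. Glycan names were put into IUPAC-condensed notation, and columns mapping to the same glycan were averaged. The binding signal is a within-array Z-score, averaged across arrays of one protein sequence run at different concentrations or buffers and across linkers. A negative Z-score can be read as non-binding.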"}, "[2]": {"biological_target": "Neu5Ac(a2-3)Gal(b1-4)[Fuc(a1-3)]GlcNAc(b1-3)Gal", "summary_of_the_method": "as §1"}, "[3]": {"biological_target": "Neu5Ac(a2-3)Gal(b1-4)[Fuc(a1-3)]GlcNAc(b1-3)Gal(b1-4)GlcNAc", "summary_of_the_method": "as §1"}, "[4]": {"biological_target": "Neu5Ac(a2-3)Gal(b1-4)[Fuc(a1-3)]GlcNAc(b1-3)Gal(b1-4)[Fuc(a1-3)]GlcNAc(b1-3)Gal(b1-4)[Fuc(a1-3)]GlcNAc", "summary_of_the_method": "as §1"}, "[5]": {"biological_target": "Neu5Ac(a2-3)Gal(b1-4)[Fuc(a1-3)]GlcNAc(b1-6)[Gal(b1-3)]GalNAc", "summary_of_the_method": "as §1"}, "[6]": {"biological_target": "Neu5Ac(a2-3)Gal(b1-4)[Fuc(a1-3)]GlcNAc6S", "summary_of_the_method": "as §1"}, "[7]": {"biological_target": "Neu5Ac(a2-3)Gal6S(b1-4)GlcNAc", "summary_of_the_method": "as §1"}, "[8]": {"biological_target": "Neu5Ac(a2-3)Gal6S(b1-4)[Fuc(a1-3)]GlcNAc", "summary_of_the_method": "as §1"}, "[9]": {"biological_target": "Neu5Ac(a2-3)GalNAc", "summary_of_the_method": "as §1"}, "[10]": {"biological_target": "Neu5Ac(a2-3)GalNAc(b1-4)GlcNAc", "summary_of_the_method": "as §1"}, "[11]": {"biological_target": "Neu5Ac(a2-3)[GalNAc(b1-4)]Gal(b1-4)Glc", "summary_of_the_method": "as §1"}, "[12]": {"biological_target": "Neu5Ac(a2-3)[GalNAc(b1-4)]Gal(b1-4)GlcNAc", "summary_of_the_method": "as §1"}, "[13]": {"biological_target": "Neu5Ac(a2-3)[Neu5Ac(a2-6)]GalNAc", "summary_of_the_method": "as §1"}, "[14]": {"biological_target": "Neu5Ac(a2-6)Gal", "summary_of_the_method": "as §1"}, "[15]": {"biological_target": "Neu5Ac(a2-6)Gal(b1-4)Glc", "summary_of_the_method": "as §1"}, "[16]": {"biological_target": "Neu5Ac(a2-6)Gal(b1-4)GlcNAc", "summary_of_the_method": "as §1"}, "[17]": {"biological_target": "Neu5Ac(a2-6)Gal(b1-4)GlcNAc(b1-2)Man(a1-3)[Gal(b1-4)GlcNAc(b1-2)Man(a1-6)]Man(b1-4)GlcNAc(b1-4)GlcNAc", "summary_of_the_method": "as §1"}, "[18]": {"biological_target": "Neu5Ac(a2-6)Gal(b1-4)GlcNAc(b1-2)Man(a1-3)[GlcNAc(b1-2)Man(a1-6)]Man(b1-4)GlcNAc(b1-4)GlcNAc", "summary_of_the_method": "as §1"}, "[19]": {"biological_target": "Neu5Ac(a2-6)Gal(b1-4)GlcNAc(b1-2)Man(a1-3)[GlcNAc(b1-2)Man(b1-4)GlcNAc(b1-2)Man(a1-6)]Man(b1-4)GlcNAc(b1-4)GlcNAc", "summary_of_the_method": "as §1"}, "[20]": {"biological_target": "Neu5Ac(a2-6)Gal(b1-4)GlcNAc(b1-2)Man(a1-3)[Neu5Ac(a2-6)Gal(b1-4)GlcNAc(b1-2)Man(a1-6)]Man(b1-4)GlcNAc(b1-4)GlcNAc", "summary_of_the_method": "as §1"}, "[21]": {"biological_target": "Neu5Ac(a2-6)Gal(b1-4)GlcNAc(b1-2)Man(a1-6)[Gal(b1-4)GlcNAc(b1-2)Man(a1-3)]Man(b1-4)GlcNAc(b1-4)GlcNAc", "summary_of_the_method": "as §1"}, "[22]": {"biological_target": "Neu5Ac(a2-6)Gal(b1-4)GlcNAc(b1-2)Man(a1-6)[GlcNAc(b1-2)Man(a1-3)]Man(b1-4)GlcNAc(b1-4)GlcNAc", "summary_of_the_method": "as §1"}, "[23]": {"biological_target": "Neu5Ac(a2-6)Gal(b1-4)GlcNAc(b1-3)Gal(b1-4)GlcNAc", "summary_of_the_method": "as §1"}, "[24]": {"biological_target": "Neu5Ac(a2-6)Gal(b1-4)GlcNAc(b1-3)Gal(b1-4)[Fuc(a1-3)]GlcNAc(b1-3)Gal(b1-4)[Fuc(a1-3)]GlcNAc", "summary_of_the_method": "as §1"}, "[25]": {"biological_target": "Neu5Ac(a2-6)Gal(b1-4)GlcNAc6S", "summary_of_the_method": "as §1"}, "[26]": {"biological_target": "Neu5Ac(a2-6)GalNAc", "summary_of_the_method": "as §1"}, "[27]": {"biological_target": "Neu5Ac(a2-6)GalNAc(b1-4)GlcNAc", "summary_of_the_method": "as §1"}, "[28]": {"biological_target": "Neu5Ac(a2-8)Neu5Ac", "summary_of_the_method": "as §1"}, "[29]": {"biological_target": "Neu5Ac(a2-8)Neu5Ac(a2-3)Gal(b1-4)Glc", "summary_of_the_method": "as §1"}, "[30]": {"biological_target": "Neu5Ac(a2-8)Neu5Ac(a2-3)[GalNAc(b1-4)]Gal(b1-4)Glc", "summary_of_the_method": "as §1"}, "[31]": {"biological_target": "Neu5Ac(a2-8)Neu5Ac(a2-8)Neu5Ac", "summary_of_the_method": "as §1"}, "[32]": {"biological_target": "Neu5Ac(a2-8)Neu5Ac(a2-8)Neu5Ac(a2-3)Gal(b1-4)Glc", "summary_of_the_method": "as §1"}, "[33]": {"biological_target": "Neu5Ac(a2-8)Neu5Ac(a2-8)Neu5Ac(a2-3)[GalNAc(b1-4)]Gal(b1-4)Glc", "summary_of_the_method": "as §1"}, "[34]": {"biological_target": "Neu5Ac(a2-8)Neu5Ac(a2-8)Neu5Ac(a2-8)Neu5Ac(a2-3)[GalNAc(b1-4)]Gal(b1-4)Glc", "summary_of_the_method": "as §1"}, "[35]": {"biological_target": "Neu5Ac(b2-6)Gal(b1-4)GlcNAc", "summary_of_the_method": "as §1"}, "[36]": {"biological_target": "Neu5Ac(b2-6)GalNAc", "summary_of_the_method": "as §1"}, "[37]": {"biological_target": "Neu5Ac9Ac(a2-6)Gal(b1-4)GlcNAc", "summary_of_the_method": "as §1"}, "[38]": {"biological_target": "Neu5Gc(a2-3)Gal(b1-3)GlcNAc", "summary_of_the_method": "as §1"}, "[39]": {"biological_target": "Neu5Gc(a2-3)Gal(b1-3)[Fuc(a1-4)]GlcNAc", "summary_of_the_method": "as §1"}, "[40]": {"biological_target": "Neu5Gc(a2-3)Gal(b1-4)Glc", "summary_of_the_method": "as §1"}, "[41]": {"biological_target": "Neu5Gc(a2-3)Gal(b1-4)GlcNAc", "summary_of_the_method": "as §1"}, "[42]": {"biological_target": "Neu5Gc(a2-3)Gal(b1-4)[Fuc(a1-3)]GlcNAc", "summary_of_the_method": "as §1"}, "[43]": {"biological_target": "Neu5Gc(a2-6)Gal(b1-4)GlcNAc", "summary_of_the_method": "as §1"}, "[44]": {"biological_target": "Neu5Gc(a2-6)GalNAc", "summary_of_the_method": "as §1"}, "[45]": {"biological_target": "Neu5Gc(b2-6)Gal(b1-4)GlcNAc", "summary_of_the_method": "as §1"}},
  "note": "The list shows a part of the results.",
  "data": [
    {"binder": "B1", "values": [
      {"measurement": "glycan array binding signal (z-score)", "setting": "[1]", "value": -0.49},
      {"measurement": "glycan array binding signal (z-score)", "setting": "[2]", "value": -0.613},
      {"measurement": "glycan array binding signal (z-score)", "setting": "[3]", "value": -0.124},
      {"measurement": "glycan array binding signal (z-score)", "setting": "[4]", "value": -0.599},
      {"measurement": "glycan array binding signal (z-score)", "setting": "[5]", "value": -0.128},
      {"measurement": "glycan array binding signal (z-score)", "setting": "[6]", "value": 0.726},
      {"measurement": "glycan array binding signal (z-score)", "setting": "[7]", "value": 0.18},
      {"measurement": "glycan array binding signal (z-score)", "setting": "[8]", "value": -0.213},
      {"measurement": "glycan array binding signal (z-score)", "setting": "[9]", "value": -0.303},
      {"measurement": "glycan array binding signal (z-score)", "setting": "[10]", "value": -0.617},
      {"measurement": "glycan array binding signal (z-score)", "setting": "[11]", "value": -0.584},
      {"measurement": "glycan array binding signal (z-score)", "setting": "[12]", "value": -0.372},
      {"measurement": "glycan array binding signal (z-score)", "setting": "[13]", "value": 0.008},
      {"measurement": "glycan array binding signal (z-score)", "setting": "[14]", "value": -0.069},
      {"measurement": "glycan array binding signal (z-score)", "setting": "[15]", "value": -0.406},
      {"measurement": "glycan array binding signal (z-score)", "setting": "[16]", "value": -0.296},
      {"measurement": "glycan array binding signal (z-score)", "setting": "[17]", "value": -0.23},
      {"measurement": "glycan array binding signal (z-score)", "setting": "[18]", "value": -0.412},
      {"measurement": "glycan array binding signal (z-score)", "setting": "[19]", "value": -0.446},
      {"measurement": "glycan array binding signal (z-score)", "setting": "[20]", "value": -0.473},
      {"measurement": "glycan array binding signal (z-score)", "setting": "[21]", "value": -0.33},
      {"measurement": "glycan array binding signal (z-score)", "setting": "[22]", "value": -0.079},
      {"measurement": "glycan array binding signal (z-score)", "setting": "[23]", "value": -0.538},
      {"measurement": "glycan array binding signal (z-score)", "setting": "[24]", "value": -0.304},
      {"measurement": "glycan array binding signal (z-score)", "setting": "[25]", "value": -0.619},
      {"measurement": "glycan array binding signal (z-score)", "setting": "[26]", "value": -0.4},
      {"measurement": "glycan array binding signal (z-score)", "setting": "[27]", "value": -0.493},
      {"measurement": "glycan array binding signal (z-score)", "setting": "[28]", "value": 0.315},
      {"measurement": "glycan array binding signal (z-score)", "setting": "[29]", "value": -0.532},
      {"measurement": "glycan array binding signal (z-score)", "setting": "[30]", "value": -0.445},
      {"measurement": "glycan array binding signal (z-score)", "setting": "[31]", "value": -0.385},
      {"measurement": "glycan array binding signal (z-score)", "setting": "[32]", "value": -0.596},
      {"measurement": "glycan array binding signal (z-score)", "setting": "[33]", "value": -0.518},
      {"measurement": "glycan array binding signal (z-score)", "setting": "[34]", "value": -0.527},
      {"measurement": "glycan array binding signal (z-score)", "setting": "[35]", "value": -0.404},
      {"measurement": "glycan array binding signal (z-score)", "setting": "[36]", "value": -0.57},
      {"measurement": "glycan array binding signal (z-score)", "setting": "[37]", "value": 0.261},
      {"measurement": "glycan array binding signal (z-score)", "setting": "[38]", "value": 0.068},
      {"measurement": "glycan array binding signal (z-score)", "setting": "[39]", "value": -0.332},
      {"measurement": "glycan array binding signal (z-score)", "setting": "[40]", "value": -0.281},
      {"measurement": "glycan array binding signal (z-score)", "setting": "[41]", "value": -0.484},
      {"measurement": "glycan array binding signal (z-score)", "setting": "[42]", "value": -0.453},
      {"measurement": "glycan array binding signal (z-score)", "setting": "[43]", "value": -0.469},
      {"measurement": "glycan array binding signal (z-score)", "setting": "[44]", "value": 0.667},
      {"measurement": "glycan array binding signal (z-score)", "setting": "[45]", "value": 0.693}
    ]}
  ]
}
